{"source": "PubChem BioAssay AID1345082", "about": "(National Center for Advancing Translational Sciences (NCATS), 2018)", "note": "Out of some 94,000 compounds screened, about 4,000 (4.3%) were called active. The shares of active, inactive and inconclusive entries below differ from those in the screen. Calls come from the whole dose curve; as a rule, active = well fitted inhibition curve with a large enough effect; inconclusive = small, poorly fitted or top-dose-only effect; inactive = no such curve, though single readings can be large or run the other way. Potencies beside an inconclusive call are fits to weak or partial responses and may not hold up. % is set by controls: 0 for no effect and ±100 for the full control effect; potency is the fitted concentration of half-maximal effect; tags give direction and shape of the fitted curve."}
{"test": "Cytotoxic Profiling in NIH 3T3 Cell Line of Diverse Libraries Using Quantitative High-Throughput Screening; note: nearly all actives have a fitted effect of over 55% in size", "details": "NIH 3T3 viability, CellTiter-Glo ATP luminescence, 48-72 h; activity change, negative = cytotoxicity: at 96.7 µM (top of the series) unless noted; series mostly up to 96.7 µM", "procedure,_shortened": "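NIH 3T3 cells at 400 cells/well received 23 nL of compound by pintool and were incubated 48 or 72 h at 37 °C. Viability was read as ATP-coupled CellTiter-Glo luminescence.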"}
{"smiles": "Cc1ccc(NC(=O)C2CCc3nnc(CN[S+](=O)([O-])c4ccccc4Cl)n32)cc1", "note": "(stereo not drawn)", "Potency": "inconclusive: 79.4 µM [inhibitor, partial curve, poor fit]"}
{"smiles": "COc1ccc(C2=NOC3(CCCN(C(=O)c4ccc5c(c4)OCO5)C3)C2)cc1", "note": "(stereo not drawn)", "Potency": "inconclusive: 50.1 µM [inhibitor, partial curve, poor fit]"}
{"smiles": "Cc1ccc(-n2c(C3CCN(C(=O)c4ccco4)CC3)n[nH]c2=O)cc1", "Potency": "active: 22.4 µM"}
{"smiles": "Cc1nc2scc(CC(=O)NCC(C)C)n2c(=O)c1-c1cc(C)n(-c2ccc(C(C)C)cc2)n1", "Potency": "inconclusive: 50.1 µM [inhibitor, partial curve, poor fit]"}
{"smiles": "Cc1ncsc1C1N(C2CCN(C(=O)C3CC3)CC2)C(=O)C12CCCC2", "note": "(stereo not drawn)", "Potency": "inconclusive: 50.1 µM [inhibitor, single point]"}
{"smiles": "CC#CCn1cc2c3c(cccc31)[C@H](CC(C)C)N[C@H](C(=O)N1CCC(O)CC1)C2", "Potency": "inconclusive: 126 µM [inhibitor, single point]"}
{"smiles": "O=[S+]1([O-])NC2(CCCN(Cc3ccc(F)cc3)C2)CNc2ccccc21", "note": "(stereo not drawn)", "Potency": "inconclusive: 56.2 µM [inhibitor, partial curve, poor fit]"}
{"smiles": "Cn1ccc(NC(=O)c2ccc3c(c2)NC(C)(CCCCc2ccccc2)CO3)n1", "note": "(stereo not drawn)", "Potency": "active: 39.8 µM"}
{"smiles": "COc1cccc2c1OCC(C(=O)N1CC(Oc3ccccc3C)C1)C2", "note": "(stereo not drawn)", "Potency": "inconclusive: 79.4 µM [inhibitor, partial curve, poor fit]"}
{"smiles": "N#Cc1cccnc1-c1ccc(C(=O)N2CCC(N[S+](=O)([O-])c3cccc(C(F)(F)F)c3)CC2)cc1", "Potency": "inconclusive: 50.1 µM [inhibitor, partial curve, poor fit]"}
{"smiles": "COC(=O)CNC(=O)c1cc(-c2ccc(Cl)nc2)c2cnn(C)c2n1", "Potency": "inconclusive: 56.2 µM [inhibitor, partial curve, poor fit]"}
{"smiles": "Cc1ccc(C)c(NC(=O)Cn2c(-c3cccc(Cl)c3)nc(C)c(CCO)c2=O)c1", "activity change, negative = cytotoxicity": "inactive: -13.5%"}
{"smiles": "COc1ccccc1-c1cccc(C(=O)N2CCN(C(=O)NC(C)C)CC2)c1", "activity change, negative = cytotoxicity": "inactive: -15%"}
{"smiles": "CN1C(=O)CO[C@H](c2ccc(NC(=O)c3ccc(C(F)(F)F)cc3)cc2)[C@H]1CO", "activity change, negative = cytotoxicity": "inactive: -29.5% [at 174 µM]"}
{"smiles": "CN(CC1CCOC1)C(=O)NCCc1ccccc1", "note": "(stereo not drawn)", "outcome": "inactive"}
{"smiles": "COc1ccccc1-c1cc2[nH]ccc2c(C(=O)NCc2c(C)cc(C)[nH]c2=O)n1", "Potency": "inconclusive: 44.7 µM [inhibitor, partial curve]"}
{"smiles": "Cc1cccc(-c2noc(CCC(=O)N3CCC(C)(c4noc(-c5ccncc5)n4)CC3)n2)c1", "Potency": "inconclusive: 28.2 µM [inhibitor, partial curve]"}
{"smiles": "O=C1Nc2ccccc2O[C@H]2C[C@@H]1N(Cc1ccc(C(F)(F)F)cc1)C2", "Potency": "inconclusive: 100 µM [inhibitor, partial curve]"}
{"smiles": "COc1cccc(-c2cc(C3CCN(C(=O)Nc4ccc(OC)c(OC)c4)CC3)[nH]n2)c1", "Potency": "inconclusive: 50.1 µM [inhibitor, partial curve, poor fit]"}
{"smiles": "COCC1CCN(Cc2cn(-c3ccccc3C)nc2-c2ccc(OC)c(F)c2)CC1", "Potency": "inconclusive: 79.4 µM [inhibitor, partial curve, poor fit]"}
{"smiles": "CCN(Cc1cnn(C)c1)C(=O)C1CCC(=O)N(Cc2cccc(OC)c2)C1", "note": "(stereo not drawn)", "Potency": "inconclusive: 10 µM [inhibitor, partial curve, poor fit]"}
{"smiles": "O=C1[C@H]2CN(Cc3ccccc3Cl)C[C@H]2C(=O)N1CCN1CCc2ccccc2C1", "Potency": "inconclusive: 50.1 µM [inhibitor, partial curve, poor fit]"}
{"smiles": "CCC(=O)N1CCC(N(C(=O)CC)C2CCOCC2)CC1", "Potency": "inconclusive: 70.8 µM [inhibitor, single point]"}
{"smiles": "CC(C)NC(=O)c1nc2cccnc2n(CCc2ccccc2)c1=O", "Potency": "inconclusive: 112 µM [inhibitor, partial curve, poor fit]"}
{"smiles": "CCOc1ccccc1CN1CCC2(CCN(C(=O)Cc3ccc(F)cc3)CC2)Oc2ccccc21", "Potency": "inconclusive: 35.5 µM [inhibitor, partial curve]"}
{"smiles": "COc1ccccc1CNC(=O)c1c(C)oc2ccn(Cc3cccc(F)c3)c(=O)c12", "Potency": "inconclusive: 20 µM [inhibitor, full curve]"}
{"smiles": "COCCN1CCCCCC(O)c2cc(C(=O)NCc3cc(OC)ccc3OC)ccc21", "note": "(stereo not drawn)", "Potency": "inconclusive: 44.7 µM [inhibitor, partial curve, poor fit]"}
{"smiles": "O=C1C2CN(Cc3ccncc3Cl)CCC2OCCN1Cc1ccccc1F", "note": "(stereo not drawn)", "Potency": "inconclusive: 39.8 µM [inhibitor, partial curve, poor fit]"}
{"smiles": "COc1ccc(Nc2ccnc(N3CCC(NC(=O)c4cccc(OC)c4)CC3)n2)cc1", "Potency": "inconclusive: 35.5 µM [inhibitor, partial curve, poor fit]"}
{"smiles": "COCC(=O)N1CCN(Cc2ccccc2-c2ccccc2F)CC1", "activity change, negative = cytotoxicity": "inactive: -11% [at 138 µM]"}
{"smiles": "CCC(C)NC(=O)C(NC(=O)c1cccc(OC)c1)C1CCN(C(=O)CC(C)(C)C)CC1", "note": "(stereo not drawn)", "activity change, negative = cytotoxicity": "inactive: -15%"}
{"smiles": "O=C(NCc1ccccn1)c1ccc(N2CC3CC(C2)[C@H]2CCCC(=O)N2C3)nc1", "note": "(stereo partly drawn)", "Potency": "inconclusive: 70.8 µM [inhibitor, single point]"}
{"smiles": "CN(Cc1cccnc1)c1ccc2ncc(Nc3cccc(C(F)(F)F)c3)n2n1", "Potency": "inconclusive: 50.1 µM [inhibitor, partial curve, poor fit]"}
{"smiles": "COc1ccc(NC(=O)N[C@H]2[C@H](O)[C@@H](N3CCN(c4ccccc4)CC3)[C@@H]3OC[C@H]2O3)cc1", "Potency": "inconclusive: 79.4 µM [inhibitor, single point]"}
{"smiles": "N#Cc1ccccc1-c1cc2c(ccn2Cc2ccncc2)c(N2CCOCC2)n1", "Potency": "inconclusive: 100 µM [inhibitor, partial curve, poor fit]"}
{"smiles": "O=C(O)Cn1nc2c(cc1=O)CCCC2", "outcome": "inactive"}
{"smiles": "Oc1ccc(-c2nc(C3CC3)nc3c2CN(CC2CC2)CC3)cc1", "Potency": "inconclusive: 79.4 µM [inhibitor, partial curve, poor fit]"}
{"smiles": "NC(=O)CN1C(=O)[C@@H]2CN(C(=O)c3ccc4c(c3)OCO4)CCN2C1=O", "activity change, negative = cytotoxicity": "inactive: -32.1% [at 174 µM]"}
{"smiles": "Cc1nnc(-c2cc(-c3ccc(CO)cc3)ccn2)n1Cc1ccncc1", "Potency": "inconclusive: 89.1 µM [inhibitor, single point]"}
{"smiles": "O=C(NCc1nnc2ccc(-c3ccccc3)nn12)c1ccc(Cl)s1", "Potency": "inconclusive: 44.7 µM [inhibitor, partial curve, poor fit]"}
{"smiles": "COc1ccc(C(C)NC(=O)c2c(C)oc3ccn(Cc4cccc(F)c4)c(=O)c23)cc1", "note": "(stereo not drawn)", "Potency": "inconclusive: 28.2 µM [inhibitor, full curve, poor fit]"}
{"smiles": "COc1ccc(C)cc1NC(=O)CC1CCCN(c2cnn(CC3CC3)c(=O)c2)C1", "note": "(stereo not drawn)", "Potency": "inconclusive: 44.7 µM [inhibitor, partial curve, poor fit]"}
{"smiles": "CN(Cc1ccccc1)C1CCOC2(CCN(S(=O)(=O)c3ccc(F)cc3)CC2)C1", "note": "(stereo not drawn)", "Potency": "inconclusive: 44.7 µM [inhibitor, partial curve, poor fit]"}
{"smiles": "CC1CCN(C(=O)C[C@@H]2c3nc(NC(=O)c4ccnc(Cl)c4)sc3C[C@@H]3[C@](C)(CO)[C@H](O)CC[C@]32C)CC1", "Potency": "inconclusive: 50.1 µM [inhibitor, partial curve, poor fit]"}
{"smiles": "COc1ccc(CN2C[C@@H](F)[C@@H](OCc3nc4ccc(F)cc4[nH]3)C2)cn1", "Potency": "inconclusive: 79.4 µM [inhibitor, partial curve]"}
{"smiles": "COc1ccccc1-c1ccc(CN2CCCCC2C(=O)NCc2ccccc2F)cc1", "note": "(stereo not drawn)", "Potency": "inconclusive: 25.1 µM [inhibitor, full curve]"}
{"smiles": "O=C(NC1CCN(c2ccnc3ccnn23)C1)C1CC1", "note": "(stereo not drawn)", "Potency": "inconclusive: 89.1 µM [inhibitor, partial curve, poor fit]"}
{"smiles": "COc1ccc(NC(=O)N[C@@H]2C=C[C@@H](c3c(C)nn(-c4ccc(C(C)C)cc4)c3C)C2)cc1", "Potency": "inconclusive: 39.8 µM [inhibitor, partial curve, poor fit]"}
{"smiles": "O=C(Nc1cccc(F)c1)N1Cc2[nH]cnc2C[C@H]1c1nc(-c2cccc([N+](=O)[O-])c2)no1", "Potency": "inconclusive: 39.8 µM [inhibitor, partial curve]"}
{"smiles": "O=C(NCc1ccccc1)c1nc2sccn2c1-c1ccc(C(F)(F)F)cc1", "Potency": "inconclusive: 35.5 µM [inhibitor, partial curve]"}
{"smiles": "Cc1cn2nc(C(=O)N3CCC(NC(=O)c4cccn4C)CC3)cc2c(=O)[nH]1", "activity change, negative = cytotoxicity": "inactive: -19.2%"}
{"smiles": "COC(=O)N1CCC2(CC1)C(=NC1CCCC1)NC(=O)N2c1cc(F)cc(F)c1", "Potency": "inconclusive: 50.1 µM [inhibitor, partial curve, poor fit]"}
{"smiles": "CNC(=O)C(=O)N1C[C@H](C(=O)NC)[C@H]2c3ccccc3N(CCOC)C(=O)[C@]21C", "Potency": "inconclusive: 39.8 µM [inhibitor, partial curve, poor fit]"}
{"smiles": "COc1ccc(CC(=O)NC2CCCN(Cc3cccc(-c4ccc(C)c(Cl)c4)c3)C2)cc1", "note": "(stereo not drawn)", "Potency": "inconclusive: 50.1 µM [inhibitor, partial curve, poor fit]"}
{"smiles": "CCOc1ccccc1C(=O)NC1CCN(c2cc(-c3ccc(OC)cc3)[nH]n2)C1", "note": "(stereo not drawn)", "Potency": "active: 35.5 µM"}
{"smiles": "C[C@H](C(=O)N1CCCC1)C1CC[C@@]2(C)Cc3sc(NC(=O)C4CC4)nc3[C@@H](C)[C@@H]2[C@H]1O", "note": "(stereo partly drawn)", "activity change, negative = cytotoxicity": "inactive: -13.7%"}
{"smiles": "CCN1CCCC2(Cc3ccccc3CN(C(C)=O)C2)C1", "note": "(stereo not drawn)", "outcome": "inactive [at 138 µM]"}
{"smiles": "CCC(C(=O)NCCn1ccn2nc(-c3ccc(F)cc3)cc2c1=O)c1ccccc1", "note": "(stereo not drawn)", "Potency": "inconclusive: 22.4 µM [inhibitor, partial curve]"}
